In the supplement of paper PMC9151546:
Repeats are few or missing, and single values can be far off.

Tests used:
CHO-K1 [1] = assay: hypodiploid nuclei frequency (% of nucleated events); higher = more hypodiploid events (aneugenic)
Protocol: (§1)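 Flow-cytometric in vitro micronucleus assay (Litron MicroFlow) in CHO-K1 cells in 96-well plates, 19 concentrations (4.5-200 µM, n=1 per concentration). Without S9, cells were exposed for 24 h and sampled at 48 h. With Aroclor 1254-induced rat liver S9, cells were exposed for 3-4 h and sampled at 27-28 h. Read-outs are %MN and %hypodiploid nuclei relative to nucleated events, and relative survival as the nuclei-to-bead ratio versus the 1% DMSO vehicle control (x100).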

CHO-K1 [2] = assay: relative survival (nuclei to bead ratio vs DMSO control) (% of vehicle control); higher = more surviving cells
Protocol: as §1

CHO-K1 [3] = assay: micronucleus frequency (% of nucleated events); higher = more micronuclei (genotoxic)
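For hypodiploid nuclei frequency (% of nucleated events) in this document: hypodiploid nuclei gated on a flow cytometer with 488 nm excitation after SYTOX Green staining, cultures at 37 °C, positive controls vinblastine without S9 and cyclophosphamide with S9.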
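For micronucleus frequency (% of nucleated events) in this document: cells lysed with nuclei stained by SYTOX Green, then micronucleus-gated events counted against nucleated events by flow cytometry with 488 nm excitation.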
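For relative survival (nuclei to bead ratio vs DMSO control) in this document: Lysed-cell nuclei stained with SYTOX Green and counted against counting beads by flow cytometry at 488 nm excitation, with vinblastine (no S9) and cyclophosphamide (plus S9) as positive controls.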

Cc1ccc(-c2cc(C(F)(F)F)nn2-c2ccc(S(N)(=O)=O)cc2)cc1 [Celecoxib]
Settings	hypodiploid nuclei frequency, CHO-K1 [1] [%]	micronucleus frequency, CHO-K1 [3] [%]	relative survival, CHO-K1 [2]
concentration: 4.5 (µM), S9 metabolic activation: with S9, exposure time: 3-4 hours	0.3	0.96	135
concentration: 4.5 (µM), S9 metabolic activation: without S9, exposure time: 24 hours	0.8	0.98	98.5
concentration: 5.63 (µM), S9 metabolic activation: with S9, exposure time: 3-4 hours	0.26	0.96	116
concentration: 5.63 (µM), S9 metabolic activation: without S9, exposure time: 24 hours	0.52	0.96	102
concentration: 7.04 (µM), S9 metabolic activation: with S9, exposure time: 3-4 hours	0.28	1.08	135
concentration: 7.04 (µM), S9 metabolic activation: without S9, exposure time: 24 hours	0.54	0.8	93.6
concentration: 8.8 (µM), S9 metabolic activation: with S9, exposure time: 3-4 hours	0.3	0.88	121
concentration: 8.8 (µM), S9 metabolic activation: without S9, exposure time: 24 hours	0.62	1.12	90.2
concentration: 11 (µM), S9 metabolic activation: with S9, exposure time: 3-4 hours	0.36	1.08	123
concentration: 11 (µM), S9 metabolic activation: without S9, exposure time: 24 hours	0.7	1.08	88.2
concentration: 13.7 (µM), S9 metabolic activation: with S9, exposure time: 3-4 hours	0.2	1.06	117
concentration: 13.7 (µM), S9 metabolic activation: without S9, exposure time: 24 hours	0.54	1.26	74.1
concentration: 17.2 (µM), S9 metabolic activation: with S9, exposure time: 3-4 hours	0.3	1.58	106
concentration: 17.2 (µM), S9 metabolic activation: without S9, exposure time: 24 hours	0.62	1.4	72.4
concentration: 21.5 (µM), S9 metabolic activation: with S9, exposure time: 3-4 hours	0.16	1.3	101
concentration: 21.5 (µM), S9 metabolic activation: without S9, exposure time: 24 hours	0.64	1	71.7
concentration: 26.8 (µM), S9 metabolic activation: with S9, exposure time: 3-4 hours	0.23	1.51	57.7
concentration: 26.8 (µM), S9 metabolic activation: without S9, exposure time: 24 hours	1.4	0.6	64.6
concentration: 33.6 (µM), S9 metabolic activation: with S9, exposure time: 3-4 hours	0.38	1.5	62.5
concentration: 33.6 (µM), S9 metabolic activation: without S9, exposure time: 24 hours	–	–	32.7
concentration: 41.9 (µM), S9 metabolic activation: with S9, exposure time: 3-4 hours	0.42	0.7	134
concentration: 41.9 (µM), S9 metabolic activation: without S9, exposure time: 24 hours	1.28	0.5	54.7
concentration: 52.4 (µM), S9 metabolic activation: with S9, exposure time: 3-4 hours	0.28	1.14	121
concentration: 52.4 (µM), S9 metabolic activation: without S9, exposure time: 24 hours	0.86	0.76	54.7
concentration: 65.5 (µM), S9 metabolic activation: with S9, exposure time: 3-4 hours	0.32	1.28	115
concentration: 65.5 (µM), S9 metabolic activation: without S9, exposure time: 24 hours	0.78	0.76	44.4
concentration: 81.9 (µM), S9 metabolic activation: with S9, exposure time: 3-4 hours	0.3	1.56	91
concentration: 81.9 (µM), S9 metabolic activation: without S9, exposure time: 24 hours	0.52	0.8	40.6
concentration: 102 (µM), S9 metabolic activation: with S9, exposure time: 3-4 hours	0.37	3.92	59.2
concentration: 102 (µM), S9 metabolic activation: without S9, exposure time: 24 hours	–	–	36.2
concentration: 128 (µM), S9 metabolic activation: without S9, exposure time: 24 hours	–	–	17.4

Cc1ccc(C(C)C)c(O)c1 [Thymol]
Settings	hypodiploid nuclei frequency, CHO-K1 [1] [%]	micronucleus frequency, CHO-K1 [3] [%]	relative survival, CHO-K1 [2]
concentration: 4.5 (µM), S9 metabolic activation: with S9, exposure time: 3-4 hours	0.2	0.86	118
concentration: 4.5 (µM), S9 metabolic activation: without S9, exposure time: 24 hours	0.4	1.14	125
concentration: 5.63 (µM), S9 metabolic activation: with S9, exposure time: 3-4 hours	0.2	0.8	106
concentration: 5.63 (µM), S9 metabolic activation: without S9, exposure time: 24 hours	0.5	1.3	124
concentration: 7.04 (µM), S9 metabolic activation: with S9, exposure time: 3-4 hours	0.06	0.96	128
concentration: 7.04 (µM), S9 metabolic activation: without S9, exposure time: 24 hours	0.6	1.12	112
concentration: 8.8 (µM), S9 metabolic activation: with S9, exposure time: 3-4 hours	0.18	1	120
concentration: 8.8 (µM), S9 metabolic activation: without S9, exposure time: 24 hours	0.46	1.06	106
concentration: 11 (µM), S9 metabolic activation: with S9, exposure time: 3-4 hours	0.12	1.04	148
concentration: 11 (µM), S9 metabolic activation: without S9, exposure time: 24 hours	0.74	1.54	121
concentration: 13.7 (µM), S9 metabolic activation: with S9, exposure time: 3-4 hours	0.24	0.84	128
concentration: 13.7 (µM), S9 metabolic activation: without S9, exposure time: 24 hours	0.5	1.16	150
concentration: 17.2 (µM), S9 metabolic activation: with S9, exposure time: 3-4 hours	0.16	1.08	142
concentration: 17.2 (µM), S9 metabolic activation: without S9, exposure time: 24 hours	0.54	1.26	116
concentration: 21.5 (µM), S9 metabolic activation: with S9, exposure time: 3-4 hours	0.2	1.12	145
concentration: 21.5 (µM), S9 metabolic activation: without S9, exposure time: 24 hours	0.64	1.1	133
concentration: 26.8 (µM), S9 metabolic activation: with S9, exposure time: 3-4 hours	0.18	0.76	95
concentration: 26.8 (µM), S9 metabolic activation: without S9, exposure time: 24 hours	0.42	1.42	90.2
concentration: 33.6 (µM), S9 metabolic activation: with S9, exposure time: 3-4 hours	0.14	0.64	106
concentration: 33.6 (µM), S9 metabolic activation: without S9, exposure time: 24 hours	0.3	1.2	107
concentration: 41.9 (µM), S9 metabolic activation: with S9, exposure time: 3-4 hours	0.16	1	105
concentration: 41.9 (µM), S9 metabolic activation: without S9, exposure time: 24 hours	0.58	1.3	130
concentration: 52.4 (µM), S9 metabolic activation: with S9, exposure time: 3-4 hours	0.2	0.84	111
concentration: 52.4 (µM), S9 metabolic activation: without S9, exposure time: 24 hours	0.72	1.42	97.5
concentration: 65.5 (µM), S9 metabolic activation: with S9, exposure time: 3-4 hours	0.12	0.92	110
concentration: 65.5 (µM), S9 metabolic activation: without S9, exposure time: 24 hours	0.52	1.54	92
concentration: 81.9 (µM), S9 metabolic activation: with S9, exposure time: 3-4 hours	0.14	0.86	95.9
concentration: 81.9 (µM), S9 metabolic activation: without S9, exposure time: 24 hours	0.68	1.5	103
concentration: 102 (µM), S9 metabolic activation: with S9, exposure time: 3-4 hours	0.16	0.88	114
concentration: 102 (µM), S9 metabolic activation: without S9, exposure time: 24 hours	0.9	1.64	109
concentration: 128 (µM), S9 metabolic activation: with S9, exposure time: 3-4 hours	0.12	1.2	127
concentration: 128 (µM), S9 metabolic activation: without S9, exposure time: 24 hours	0.94	1.56	103
concentration: 160 (µM), S9 metabolic activation: with S9, exposure time: 3-4 hours	0.14	0.86	111
concentration: 160 (µM), S9 metabolic activation: without S9, exposure time: 24 hours	1.08	1.94	106
concentration: 200 (µM), S9 metabolic activation: with S9, exposure time: 3-4 hours	0.28	1.4	123
concentration: 200 (µM), S9 metabolic activation: without S9, exposure time: 24 hours	1.38	1.78	91.1
